# Changes are numbered by the printed parent chain; changes in the protein carry UniProt numbers. Some of the results follow.
# T1: RBFOX1 RRM (Homo sapiens, UniProt Q9NWB1 109-208)
# T1 sequence: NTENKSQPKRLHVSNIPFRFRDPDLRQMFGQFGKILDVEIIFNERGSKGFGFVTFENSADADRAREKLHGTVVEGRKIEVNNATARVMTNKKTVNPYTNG
# B1: UACGCGA (DNA:RNA)
# RNA: GGGAGACCGGAAUUCAGAUUGUCCUACGCGAUUAAAUCCCGUCGUAGCCACCA
# DNA 1: CAATCTGAATTCCGGTCTCCC
# DNA 2: TGGTGGCTACGACGGGATT
# B2: AGGAUCC (DNA:RNA)
# RNA: GGGAGACCGGAAUUCAGAUUGUCCAGGAUCCUUAAAUCCCGUCGUAGCCACCA
# DNA 1: CAATCTGAATTCCGGTCTCCC
# DNA 2: TGGTGGCTACGACGGGATT
# B3: GAUUGAU (DNA:RNA)
# RNA: B1 RNA with U25G, C27U, G28U, C29G, G30A, A31U
# DNA 1: CAATCTGAATTCCGGTCTCCC
# DNA 2: TGGTGGCTACGACGGGATT
# B4: GGGUUGC (DNA:RNA)
# RNA: B2 RNA with A25G, A28U, C30G
# DNA 1: CAATCTGAATTCCGGTCTCCC
# DNA 2: TGGTGGCTACGACGGGATT
# B5: GACGGAU (DNA:RNA)
# RNA: B1 RNA with U25G, C29G, G30A, A31U
# DNA 1: CAATCTGAATTCCGGTCTCCC
# DNA 2: TGGTGGCTACGACGGGATT
# B6: AUGUAGG (DNA:RNA)
# RNA: B2 RNA with G26U, A28U, U29A, C30G, C31G
# DNA 1: CAATCTGAATTCCGGTCTCCC
# DNA 2: TGGTGGCTACGACGGGATT
# B7: GCAAGAA (DNA:RNA)
# RNA: B2 RNA with A25G, G26C, G27A, U29G, C30A, C31A
# DNA 1: CAATCTGAATTCCGGTCTCCC
# DNA 2: TGGTGGCTACGACGGGATT
# B8: GGGACUU (DNA:RNA)
# RNA: B2 RNA with A25G, U29C, C30U, C31U
# DNA 1: CAATCTGAATTCCGGTCTCCC
# DNA 2: TGGTGGCTACGACGGGATT
# B9: ACGUAGA (DNA:RNA)
# RNA: B2 RNA with G26C, A28U, U29A, C30G, C31A
# DNA 1: CAATCTGAATTCCGGTCTCCC
# DNA 2: TGGTGGCTACGACGGGATT
# B10: AUGUAAA (DNA:RNA)
# RNA: B2 RNA with G26U, A28U, U29A, C30A, C31A
# DNA 1: CAATCTGAATTCCGGTCTCCC
# DNA 2: TGGTGGCTACGACGGGATT
# B11: GAUUGCU (DNA:RNA)
# RNA: B2 RNA with A25G, G26A, G27U, A28U, U29G, C31U
# DNA 1: CAATCTGAATTCCGGTCTCCC
# DNA 2: TGGTGGCTACGACGGGATT
# B12: CACAACC (DNA:RNA)
# RNA: B2 RNA with A25C, G26A, G27C, U29A
# DNA 1: CAATCTGAATTCCGGTCTCCC
# DNA 2: TGGTGGCTACGACGGGATT
# B13: UUAACGA (DNA:RNA)
# RNA: B1 RNA with A26U, C27A, G28A
# DNA 1: CAATCTGAATTCCGGTCTCCC
# DNA 2: TGGTGGCTACGACGGGATT
# B14: CGGCCUU (DNA:RNA)
# RNA: B2 RNA with A25C, A28C, U29C, C30U, C31U
# DNA 1: CAATCTGAATTCCGGTCTCCC
# DNA 2: TGGTGGCTACGACGGGATT
# B15: AACUCUG (DNA:RNA)
# RNA: B1 RNA with U25A, G28U, G30U, A31G
# DNA 1: CAATCTGAATTCCGGTCTCCC
# DNA 2: TGGTGGCTACGACGGGATT
# B16: GUGGUCU (DNA:RNA)
# RNA: B2 RNA with A25G, G26U, A28G, C31U
# DNA 1: CAATCTGAATTCCGGTCTCCC
# DNA 2: TGGTGGCTACGACGGGATT
# B17: UCAAGGG (DNA:RNA)
# RNA: B1 RNA with A26C, C27A, G28A, C29G, A31G
# DNA 1: CAATCTGAATTCCGGTCTCCC
# DNA 2: TGGTGGCTACGACGGGATT
# B18: CGUGAGA (DNA:RNA)
# RNA: B1 RNA with U25C, A26G, C27U, C29A
# DNA 1: CAATCTGAATTCCGGTCTCCC
# DNA 2: TGGTGGCTACGACGGGATT
# B19: CGUUUGU (DNA:RNA)
# RNA: B2 RNA with A25C, G27U, A28U, C30G, C31U
# DNA 1: CAATCTGAATTCCGGTCTCCC
# DNA 2: TGGTGGCTACGACGGGATT
# B20: AAAGGAC (DNA:RNA)
# RNA: B2 RNA with G26A, G27A, A28G, U29G, C30A
# DNA 1: CAATCTGAATTCCGGTCTCCC
# DNA 2: TGGTGGCTACGACGGGATT
# Biological target: T1, RBFOX1 RRM
# Experiment: EMSA; HiTS-Eq, 1 nM pool, 10 min; buffer printed only for the single-RNA assays: 10 mM Tris pH 7.5, 150 mM NaCl, 3.4 mM EDTA, 0.001% NP-40, 30 C
# Conditions: tags: His6 N-terminal (pET28a); label: 5' 32P
# Procedure, shortened: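 Relative association constants, normalised to the cognate motif, were derived by comparing read counts of each RNA species with those of the control reaction. The RNA sequenced was the free fraction, separated by 8% native PAGE after a 10 min equilibration in 50 µL of 1 nM 5′-radiolabelled RNA (7 randomized nucleotides) with increasing concentrations of purified wild-type or mutant RbFox RRM.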
row,Binder,binding signal
1,B1,0.0107 KA relative to UGCAUGU
2,B2,0.0155 KA relative to UGCAUGU
3,B3,0.0195 KA relative to UGCAUGU
4,B4,0.0294 KA relative to UGCAUGU
5,B5,0.0218 KA relative to UGCAUGU
6,B6,0.0127 KA relative to UGCAUGU
7,B7,0.0141 KA relative to UGCAUGU
8,B8,0.0311 KA relative to UGCAUGU
9,B9,0.0086 KA relative to UGCAUGU
10,B10,0.00618 KA relative to UGCAUGU
11,B11,0.0199 KA relative to UGCAUGU
12,B12,0.00147 KA relative to UGCAUGU
13,B13,0.00827 KA relative to UGCAUGU
14,B14,0.0133 KA relative to UGCAUGU
15,B15,0.0104 KA relative to UGCAUGU
16,B16,0.0195 KA relative to UGCAUGU
17,B17,0.00574 KA relative to UGCAUGU
18,B18,0.016 KA relative to UGCAUGU
19,B19,0.0183 KA relative to UGCAUGU
20,B20,0.00793 KA relative to UGCAUGU

# Source: paper PMC9911399, “Two distinct binding modes provide the RNA-binding protein RbFox with extraordinary sequence specificity”
